Laboratory results published in ChEMBL document CHEMBL1156829.
In all, about 5,400 compounds were measured (“IFI”: median about 2, highest 2% from about 22 on). The list shows a part of the results.

test: NOVARTIS: Inhibition Frequency Index (IFI) - the number of HTS assays where a compound showed > 50% inhibition/induction, expressed as a percentage of the number of assays in which the compound was tested.; type: functional

SMILES | IFI
COCCN(C(C)C(=O)NC(CN1CCCC1)c1ccccc1)S(=O)(=O)c1c(C)noc1C (stereo not given) | 0.98%
COc1ccc(C(=O)Oc2ccccc2-c2nc3ccccn3c2NC(C)(C)CC(C)(C)C)cc1 | 2.86%
Cc1cc(C)c(CSc2ncnc3[nH]cnc23)c(C)c1 | 1.56%
COc1ccc(C2CC(=O)C3=C(C2)NC(C)=C(C(=O)OC2CCCC2)C3c2ccc([N+](=O)[O-])cc2)cc1OC (stereo not given) | 3.53%
CCOc1cc(S(=O)(=O)N2CCCC3(CCCCC3)C2)c(OCC)cc1-n1cnnn1 | 4.1%
Cc1cc(Nc2ccc(Cl)c(C)c2)n2nc(C)nc2n1 | 0%
CN1CCC(CCNCc2ccc(OCC(O)CN(C)Cc3ccccc3)cc2)CC1 (stereo not given) | 7.69%
CCOC(=O)c1oc2cc(O)c(CC)cc2c(=O)c1-c1ccc2c(c1)OCO2 | 3.61%
COC(=O)c1sc2nc(CN(C)Cc3nccs3)ccc2c1NC(=O)c1ccc(C)s1 | 1.71%
COc1ccc(/C=C2\SC(=O)NC2=Nc2ccccc2)c(OC)c1 | 0%
Cc1cc(-c2ccc(O)c(CN3CCCCC3CO)c2)c2ccccc2n1 (stereo not given) | 0.848%
Brc1ccc2ncnc(NCC3CCCO3)c2c1 (stereo not given) | 2.63%
CC(=O)N(C1=C(N(C)C)C(=O)c2ccccc2C1=O)c1ccc(Cl)c(Cl)c1 | 7.69%
Cc1ccc(-c2nn(-c3ccccc3)c3[nH]c(=O)c(CNCc4ccccc4)cc23)cc1 | 5.41%
CC(C)CNC(=O)c1cnc(NCCCN)nc1NC1CCCC1 | 1.91%
CCC(CO)NCC(O)Cn1c2ccc(Cl)cc2c2cc(Cl)ccc21 (stereo not given) | 6.45%
CCOC(=O)C1=NNC2C(=O)N(c3cccc(C)c3C)C(=O)C12 (stereo not given) | 0%
COc1ccccc1CN1CCc2nc(-c3cnccn3)sc2C1 | 9.86%
Cc1ccc(NC(c2ccccc2)(c2ccccc2)c2ccccc2)cc1C | 0%
CN(C)CCn1c(=N)n(CC(O)c2ccc(Cl)c(Cl)c2)c2ccccc21 (stereo not given) | 7.69%
Cc1ccccc1OCC(O)Cn1c(NC2CCCCC2)nc2c1c(=O)[nH]c(=O)n2C (stereo not given) | 0%
COc1c2occc2c(OC)c2c(=O)cc(C(Cl)(Cl)Cl)oc12 | 4.05%
CCc1ccccc1-n1c(C(C)N(C)C(=O)/C=C/c2ccc([N+](=O)[O-])cc2)nc2ccccc2c1=O (stereo not given) | 0.926%
COc1cc2nc(NCc3cccnc3)n3nc(-c4ccccc4)nc3c2cc1OC | 0%

SMILES | IFI
O=C(Nc1ccc(NC(=O)c2ccc(C3=NCCCN3)cc2)cc1)Nc1ccc(C2=NCCCN2)cc1 | 0.909%
Nc1c(C(=O)NCc2ccccc2)nnn1Cc1ccc(F)cc1Cl | 0%
COc1ccc(C[C@H](N)C(=O)N[C@H]2[C@@H](O)[C@H](n3cnc4c(N(C)C)ncnc43)O[C@@H]2CO)cc1 | 30.8%
O=S(=O)(NCCCCNc1ccnc2cc(Cl)ccc12)c1cc(Cl)ccc1Cl | 3.85%
COc1ccc(C2N(Cc3ccccc3)c3ccccc3N2Cc2ccccc2)cc1 | 20%
COc1ccc2c(c1)c1c3n2CCN(Cc2ccccc2)C3=[N+](C)CC1 | 0%
O=C(CCl)NCCNc1ncc(C(F)(F)F)cc1Cl | 1.37%
Cc1cc(C)cc(-n2c(C)cc(/C=C3/SC(=Nc4ccc(Br)cc4)NC3=O)c2C)c1 | 2.38%
CCC(C)NC(=O)c1c[nH]c2ccc(S(=O)(=O)N3CCc4ccccc43)cc2c1=O (stereo not given) | 0%
O=C(Nc1ccccc1)NC1CC2CCCC(C1)N2CCc1ccccc1 (stereo not given) | 1.32%
CC(C)CNC(=O)c1cnc(NCCCN2CCCC2)nc1NCC1CCCCC1 | 0.952%
Cc1ccc2cc3cc(C(=O)NC(C)C)sc3nc2c1 | 4.35%
COc1ccccc1C(=O)NNC(=O)c1ccccn1 | 12.1%
Cc1cc(N2CCN(C)CC2)nc2ccc(NC(=O)Nc3ccccc3Cl)cc12 | 7.14%
CC(C)CC(=O)N(C)CCCNc1ccnc2cc(Cl)ccc12 | 0.935%
O=C(NCc1ccccc1)c1cnc(NCCN2CCCCC2)nc1NCCc1ccccc1 | 0.952%
CCCCCc1nnc(NC(=O)c2ccc(-c3ccc(OC)cc3)cc2)s1 | 6.56%
Nc1nonc1-n1nnc(C(=O)NN=Cc2ccc(F)c(Br)c2)c1-c1ccc([N+](=O)[O-])cc1 | 0%
N#Cc1ccc(N2CCCN(C(=S)NC3CCCC3)CC2)nc1 | 0.787%
COc1cc(C(=O)NC2CC2)ccc1OC1CCN(CC(c2ccccc2)c2ccccc2)CC1 | 2.78%
CCOC(=O)C1=C(C(=O)OCC)SC(=C2C(=S)C(C)(C)N(C(=O)c3cccc(F)c3)c3cc(C)ccc32)S1 | 0%
COC(=O)[C@@H]1C[C@@H](NC(=O)c2ccc(OC)cc2OC)CN1Cc1ccc(C)cc1C | 0.877%
COc1ccc(NC(=O)C2c3ccccc3C(=O)N(C3CCCC3)C2c2cccs2)cc1Cl (stereo not given) | 6.25%
N#CCCN(CC1CCCO1)C(=O)Nc1ccc(Cl)c(C(F)(F)F)c1 (stereo not given) | 0%

SMILES | IFI
O=C(Nc1ccc(N2CCCCC2)cc1)N1CCc2nc[nH]c2C1c1ccc(Cl)cc1 (stereo not given) | 2.3%
CC(C)CNc1nc(NCCN2CCCCC2)ncc1C(=O)NCc1ccccc1 | 2.86%
CC(C)NC(=O)c1ccc(OC2CCN(CC3CCCCC3)CC2)c(Cl)c1 | 2.82%
Cn1nc(C(F)(F)F)c(-c2ccc(F)cc2)c1NC(=O)Nc1ccc(F)cc1F | 2.48%
CC(C)C(=O)NCCCCNc1ccnc2cc(Cl)ccc12 | 0.935%
CCCc1ccc(OCc2nc(-c3ccc(NC(=O)c4cccs4)cc3)no2)cc1 | 0%
Cc1nc(Cl)cc(N2CCc3c(nc(N4CC(C)OC(C)C4)[nH]c3=O)C2)n1 (stereo not given) | 0%
CCC(CO)NCC(O)Cn1c2ccc(Br)cc2c2cc(Br)ccc21 (stereo not given) | 4.65%
CCn1c2ccccc2[n+]2c(C)cc(C)nc12 | 7.14%
CCOC(=O)c1ccc(NC(=O)c2ccc(S(=O)(=O)N3CC(C)CC(C)C3)cc2)cc1 (stereo not given) | 0%
N#Cc1ccc(N2CCN(C(=O)c3ccc(F)cc3Cl)CC2)cc1 | 4.25%
Cc1ccc(C)c(NC2=C(c3ccc(C(F)(F)F)cc3)C(=O)c3ccccc32)c1 | 0%
CCCCNC(=O)N1CCN(C(=O)C(Cc2c[nH]c3ccccc23)NC(=O)Nc2cccc(C#N)c2)CC1C (stereo not given) | 2.78%
CCN1CCN(C2CCN(Cc3cc4ccc(F)cc4n(CCSc4ccccc4)c3=O)CC2)CC1 | 3%
Cc1ccn2c(NC(C)(C)CC(C)(C)C)c(-c3ccccc3OC(=O)C(C)(C)CCl)nc2c1 | 3.16%
COc1ccc(C2CC(=O)C3=C(C2)NC(C)=C(C(=O)OC2CCCC2)C3c2ccc(Cl)cc2)cc1OC (stereo not given) | 3.57%
Clc1ccc(CCNC2CCN(CCc3ccccc3)CC2)cc1 | 1.57%
Cc1cc(C)cc(OCC(=O)N2N=C(C(C)C)CC2(O)C(F)(F)F)c1 (stereo not given) | 0%
O=C(Nc1cccc(Oc2ccccc2)c1)NC(CN1CCCC1)c1ccccc1 (stereo not given) | 7.04%
Cc1nc2ccccn2c1C1(O)C(=O)Nc2c(Cl)cc(Cl)cc21 (stereo not given) | 9.38%
CCC(=O)N1CCc2cc(Br)cc(S(=O)(=O)N3CCCCC3CC)c21 (stereo not given) | 0%
CCOC(=O)N1CCN(C(=O)c2ccc(N3CC4CC(C3)c3cccc(=O)n3C4)c(NS(=O)(=O)c3ccc4c(c3)OCCO4)c2)CC1 (stereo not given) | 1.16%
CCN1CCN(CC(O)COc2ccc(OC)cc2)CC1 (stereo not given) | 0%
Cc1cc(Nc2ccc(Br)c(C)c2)n2nc(C)nc2n1 | 0%

SMILES | IFI
O=C(Nc1ccc(Br)cc1C(=O)c1ccccc1)c1cc2nc(-c3cccs3)cc(C(F)(F)F)n2n1 | 0%
COc1cccc(CN2CCN(C(c3ccccc3)c3ccccc3)CC2)c1O | 4.76%
COc1c(C=NNc2nc(Nc3ccc([N+](=O)[O-])cc3)nc(N3CCN(C)CC3)n2)cccc1[N+](=O)[O-] | 6.49%
COc1ccc(-n2c(CNc3cc(C(F)(F)F)ccc3Cl)nnc2SCc2ccccc2Cl)cc1 | 1.72%
c1ccc(C[C@H]2CN(c3ccccc3)CCN2CCNCCOc2ccccc2)cc1 | 1.24%
Brc1ccc(Nc2nc(NCc3ccco3)c3ccccc3n2)cc1 | 11.1%
O=C(Nc1ccc(-c2ccc(Cl)cc2)cc1)c1cccs1 | 5.41%
CCCOC(=O)C1=C(C)NC2=C(C(=O)CC(c3ccc(OC)cc3)C2)C1c1ccccc1F (stereo not given) | 3.53%
Cc1ccc(-n2cc(C(=O)N(C)Cc3ccccc3)c3ccccc3c2=O)cc1C | 0%
CC(C)(C)C1=NN(CC(=O)Nc2ccc3c(c2)OCO3)C(=O)c2cc3ccccc3n2C1 | 0%
Cc1ccc(CN2CCC(O)(c3ccc4oc(C(=O)NCCc5cccc(F)c5)cc4c3)CC2)cc1 | 3.03%
COc1ccc(C2N=C(N)N=C(N)N2c2ccc(Cl)cc2)cc1OC (stereo not given) | 1.43%
CCCCCCN(C(=O)c1cccc(C(F)(F)F)c1)C(CC)c1nc2ccccc2c(=O)n1-c1ccccc1OC (stereo not given) | 0.917%
CCCN(CC(=O)Nc1cc(C(C)(C)C)nn1-c1cccc(C)c1)C(=O)c1cccc([N+](=O)[O-])c1 | 3.6%
O=C(NCCC1=CCCCC1)c1ccc2c(=O)n(-c3ccccc3)c(SCc3nc4ccccc4[nH]3)nc2c1 | 1.19%
NC(=S)NN=Cc1cc([N+](=O)[O-])ccc1O | 0%
CC[C@@H](C(=O)[C@@H](C)C(O)[C@H](C)CCc1ccc(C)c(O)c1C(=O)O)C1O[C@](CC)(C2CC[C@](O)(CC)[C@H](C)O2)C[C@@H]1C (stereo not given in full) | 9.84%
CCOC(=O)c1sc(NC(=O)C(C)Sc2nnc(CNC(=O)c3ccc(OC)cc3)n2-c2ccccc2OC)c(C(=O)OCC)c1C (stereo not given) | 1.35%
CCCCCCc1ccc(C(=O)N(CC(=O)Nc2cc(C(C)(C)C)nn2-c2ccc(Cl)c(Cl)c2)C(C)C)cc1 | 1.91%
CC(CN1CCC(n2cc(C(=O)N3CCCC3)nn2)CC1)c1ccccc1 (stereo not given) | 0.885%
COc1cc(CNc2cc(OCCOc3ccc(Cl)cc3)cc(C(=O)NC3CCN(Cc4ccccc4)CC3)c2)ccc1OCc1ccccc1 | 7.14%
CC(=O)N(/C=C1/Sc2ccccc2C1=O)c1ccc(C)cc1 | 7.69%
CCCCC(=O)NC(c1ccccc1)c1ccc2cccnc2c1O (stereo not given) | 12.5%
